These are yes or no findings as the source states them, for the method shown. In cells and extracts the contact can be indirect. Some results given as binding are weak or reduced against the parent protein; the word gives no strength. Where a sequence is shown, tags or fusion partners need not be part of it.

Amino acid sequences for entries named in this document (tags omitted).
UniProt P50750: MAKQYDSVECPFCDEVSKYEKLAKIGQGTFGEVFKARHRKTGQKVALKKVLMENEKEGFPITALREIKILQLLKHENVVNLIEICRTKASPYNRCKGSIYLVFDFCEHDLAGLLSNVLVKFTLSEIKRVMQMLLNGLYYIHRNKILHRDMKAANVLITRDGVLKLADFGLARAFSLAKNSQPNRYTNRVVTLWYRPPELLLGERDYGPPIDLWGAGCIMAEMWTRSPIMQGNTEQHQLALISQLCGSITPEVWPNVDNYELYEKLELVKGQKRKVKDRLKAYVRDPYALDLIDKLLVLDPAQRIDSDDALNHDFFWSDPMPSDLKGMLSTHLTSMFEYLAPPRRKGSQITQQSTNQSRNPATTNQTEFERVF

The target in this assay is FLAG-CDK9 (UniProt P50750). In words: co-IP; SUM159 cells co-transfected with FLAG-CDK9 and HA-tagged TRIM28-WT, -S824A or -S824D; IP with FLAG Ab or HA Ab; immunoblot.

B1: HA-tagged TRIM28-S824A (protein, UniProt Q13263 1-835)
chain: MAASAAAASAAAASAASGSPGPGEGSAGGEKRSTAPSAAASASASAAASSPAGGGAEALELLEHCGVCRERLRPEREPRLLPCLHSACSACLGPAAPAAANSSGDGGAAGDGTVVDCPVCKQQCFSKDIVENYFMRDSGSKAATDAQDANQCCTSCEDNAPATSYCVECSEPLCETCVEAHQRVKYTKDHTVRSTGPAKSRDGERTVYCNVHKHEPLVLFCESCDTLTCRDCQLNAHKDHQYQFLEDAVRNQRKLLASLVKRLGDKHATLQKSTKEVRSSIRQVSDVQKRVQVDVKMAILQIMKELNKRGRVLVNDAQKVTEGQQERLERQHWTMTKIQKHQEHILRFASWALESDNNTALLLSKKLIYFQLHRALKMIVDPVEPHGEMKFQWDLNAWTKSAEAFGKIVAERPGTNSTGPAPMAPPRAPGPLSKQGSGSSQPMEVQEGYGFGSGDDPYSSAEPHVSGVKRSRSGEGEVSGLMRKVPRVSLERLDLDLTADSQPPVFKVFPGSTTEDYNLIVIERGAAAAATGQPGTAPAGTPGAPPLAGMAIVKEEETEAAIGAPPTATEGPETKPVLMALAEGPGAEGPRLASPSGSTSSGLEVVAPEGTSAPGGGPGTLDDSATICRVCQKPGDLVMCNQCEFCFHLDCHLPALQDVPGEEWSCSLCHVLPDLKEEDGSLSLDGADSTGVVAKLSPANQRKCERVLLALFCHEPCRPLHQLATDSTFSLDQPGGTLDLTLIRARLQEKLSPPYSSPQEFAQDVGRMFKQFNKLTEDKADVQSIIGLQRFFETRMNEAFGDTKFSAVLVEPPPMSLPGAGLSAQELSGGPGDGP
Take B1: the binding entry is “binds weakly”.

B2: HA-tagged TRIM28-S824D (protein, UniProt Q13263 1-835)
chain: MAASAAAASAAAASAASGSPGPGEGSAGGEKRSTAPSAAASASASAAASSPAGGGAEALELLEHCGVCRERLRPEREPRLLPCLHSACSACLGPAAPAAANSSGDGGAAGDGTVVDCPVCKQQCFSKDIVENYFMRDSGSKAATDAQDANQCCTSCEDNAPATSYCVECSEPLCETCVEAHQRVKYTKDHTVRSTGPAKSRDGERTVYCNVHKHEPLVLFCESCDTLTCRDCQLNAHKDHQYQFLEDAVRNQRKLLASLVKRLGDKHATLQKSTKEVRSSIRQVSDVQKRVQVDVKMAILQIMKELNKRGRVLVNDAQKVTEGQQERLERQHWTMTKIQKHQEHILRFASWALESDNNTALLLSKKLIYFQLHRALKMIVDPVEPHGEMKFQWDLNAWTKSAEAFGKIVAERPGTNSTGPAPMAPPRAPGPLSKQGSGSSQPMEVQEGYGFGSGDDPYSSAEPHVSGVKRSRSGEGEVSGLMRKVPRVSLERLDLDLTADSQPPVFKVFPGSTTEDYNLIVIERGAAAAATGQPGTAPAGTPGAPPLAGMAIVKEEETEAAIGAPPTATEGPETKPVLMALAEGPGAEGPRLASPSGSTSSGLEVVAPEGTSAPGGGPGTLDDSATICRVCQKPGDLVMCNQCEFCFHLDCHLPALQDVPGEEWSCSLCHVLPDLKEEDGSLSLDGADSTGVVAKLSPANQRKCERVLLALFCHEPCRPLHQLATDSTFSLDQPGGTLDLTLIRARLQEKLSPPYSSPQEFAQDVGRMFKQFNKLTEDKADVQSIIGLQRFFETRMNEAFGDTKFSAVLVEPPPMSLPGAGLSDQELSGGPGDGP
As for B2, the binding result is “binds”.

These data come from publication PMC8760265.
